# B1: Human β-arrestin 2 tethered to the C terminus of RGFP (natural protein)
# chain: not shown
# notes: β-arrestin 2, human; start codon removed, N terminus tethered to the C terminus of RGFP through a 13-mer linker; also called β-arrestin 2-RGFP; β-arrestin 2/RGFP; source: HEK293, permanently expressed by retroviral vector (pQIXH); in whole cells; not shown: RGFP (Renilla green fluorescent protein), N-terminal, kept
# Target: T1, Human NOP Rluc-tagged fusion protein (N/OFQ peptide receptor fused to Renilla luciferase) (human)
# T1 construct: N/OFQ peptide (NOP) receptor, human; Two cell lines: one co-expressing Gβ1-RGFP, one co-expressing β-arrestin 2-RGFP; also called RLuc/NOP receptor; NOP receptor; source: HEK293, permanently expressed by retroviral vector (pQIXN); in whole cells or in enriched plasma membranes; not shown: RLuc (Renilla luciferase), C-terminal, kept
# Assay: FRET or BRET; BRET between NOP-RLuc and β-arrestin 2-RGFP in whole co-expressing HEK293 cells (100,000 cells/well), DPBS with 0.5 mM MgCl2 and 0.9 mM CaCl2, coelenterazine 5 μM, agonist added 5 min before reading, room temperature; also after PTX 10 ng 20 h (negligible effect)
# Conditions: partners not purified
binder,measurement,value
B1,stimulated BRET ratio over the baseline at the maximal effect of N/OFQ,0.07 BRET ratio units

# From publication PMC4527783 (PLoS ONE, 2015)
